This passage reports TetR repression strength results from a collection of fitness landscapes (doi:10.1038/s41467-024-54723-y).

Whole data set: some 18,000 sequences, median “TetR repression strength (sort-seq, GFP reporter)” near 0.23, cut for the highest 2% near 0.68. This is one part of the list.

The experiment has as its target TetR (class B, Tn10) (UniProt P04483). The experiment in a line: TetR repression strength (sort-seq, GFP reporter) (relative to tetO2 = 1); higher = stronger repression. As to conditions: E. coli. In a few lines: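 Escherichia coli SIG10-MAX cells carried a low-copy plasmid library in which eight operator positions were randomized between a constitutive promoter and sfGFP, and TetR was expressed constitutively. After 5 h of growth at 37 °C in LB with 50 µg/mL chloramphenicol, 10^6 cells were FACS-sorted into 13 fluorescence bins, and each bin was Illumina-sequenced. Repression strength was the top bin index plus one minus the read-weighted mean bin, divided by the value for the unaltered operator. Across three independent transformations, only library members with ≥30 reads in every replicate and a CV ≤0.5 were averaged.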
UniProt P04483, sequence (P04483 whole entry): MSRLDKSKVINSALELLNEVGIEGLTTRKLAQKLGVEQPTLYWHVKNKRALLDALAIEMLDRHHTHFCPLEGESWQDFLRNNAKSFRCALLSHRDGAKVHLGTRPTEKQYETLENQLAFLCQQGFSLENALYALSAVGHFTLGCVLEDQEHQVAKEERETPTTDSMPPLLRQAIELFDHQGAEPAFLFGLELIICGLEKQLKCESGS
Consider TCCCGAGGAGTCGACGAGA, for which the TetR repression strength stood at 0.389.

In the case of TCCCGTGAAGTGCGGGAGA, the TetR repression strength is 0.176.

As for TCCCAACCAGTTCCCGAGA, the TetR repression strength is 0.38. TCCCCAAGAGTGGGGGAGA returned a TetR repression strength of 0.229.

Consider TCCCTTAGAGTAATTGAGA, for which the TetR repression strength amounted to 0.134.

Regarding TCCCGTTGAGTATACGAGA, the TetR repression strength was found to be 0.185.

In turn, TCCCGCCCAGTCAATGAGA registered a TetR repression strength of 0.249. The sequence TCCCATGCAGTGTGTGAGA gave a TetR repression strength of 0.138.

In turn, TCCCGACTAGTGGTCGAGA displayed a TetR repression strength of 0.118. To TCCCGTACAGTCCGTGAGA belongs 0.145. Regarding TCCCAACTAGTGGGAGAGA, the TetR repression strength is 0.295.

Regarding TCCCCCTGAGTATCTGAGA, the TetR repression strength came to 0.436. Take TCCCTCTAAGTGAGTGAGA: the TetR repression strength came out at 0.162.

TCCCGGTCAGTTCCTGAGA had a TetR repression strength of 0.26. With TCCCTTTTAGTGTATGAGA, the TetR repression strength came to 0.271.

Sequence TCCCGGTTAGTGCTGGAGA displayed a TetR repression strength of 0.608. The same measure for TCCCGTTGAGTTAATGAGA: 0.206. For the sequence TCCCTCTCAGTGTTTGAGA, the TetR repression strength was 0.311.

The sequence TCCCAAGGAGTAAGGGAGA registered a TetR repression strength of 0.325. Regarding TCCCTTGGAGTTTGAGAGA, the TetR repression strength worked out at 0.058. In turn, TCCCAGTGAGTAAGGGAGA yielded a TetR repression strength of 0.0789. As to TCCCGAGTAGTCAGGGAGA, the TetR repression strength came to 0.0074. For the sequence TCCCAGAGAGTGTTGGAGA, the TetR repression strength was found to be 0.452. TCCCTTGGAGTTGGTGAGA showed a TetR repression strength of 0.136. In the case of TCCCGCATAGTTTAAGAGA, the TetR repression strength was 0.376. TCCCAACCAGTGGCGGAGA showed a TetR repression strength of 0.313. The same measure for TCCCCCGCAGTAGGCGAGA: 0.371. TCCCAACGAGTGGTAGAGA showed a TetR repression strength of 0.0691.

The sequence TCCCCGGCAGTCTGGGAGA returned a TetR repression strength of 0.271. On to TCCCCCTAAGTGACTGAGA, for which the TetR repression strength worked out at 0.363. Regarding TCCCTAATAGTGAAAGAGA, the TetR repression strength is 0.412.

TCCCTGGCAGTGGTAGAGA showed a TetR repression strength of 0.212. To TCCCATGGAGTGGTAGAGA belongs 0.403; to TCCCCTACAGTTATAGAGA, 0.294. Consider TCCCGGATAGTACGGGAGA, for which the TetR repression strength came to 0.261. As to TCCCGAGCAGTACGTGAGA, the TetR repression strength was 0.172. Regarding TCCCAAAAAGTCCGCGAGA, the TetR repression strength is 0.236. Sequence TCCCAGGTAGTTTGGGAGA came in with a TetR repression strength of 0.157. Consider TCCCTAAAAGTATGGGAGA, for which the TetR repression strength came to 0.295. On to TCCCGGAAAGTGGGAGAGA, for which the TetR repression strength was found to be 0.408. TCCCAGGGAGTTGACGAGA gave a TetR repression strength of 0.0614. As to TCCCTGGCAGTTTTTGAGA, the TetR repression strength stood at 0.196. Take TCCCGTTGAGTGCAGGAGA: the TetR repression strength came out at 0.424.

Regarding TCCCGGGTAGTCATCGAGA, the TetR repression strength was 0.426.

Consider TCCCATGTAGTTGGGGAGA, for which the TetR repression strength came out at 0.248. On to TCCCTGCAAGTTTAAGAGA, for which the TetR repression strength is 0.196. TCCCGTAGAGTGGTCGAGA came in with a TetR repression strength of 0.104. TCCCACGCAGTGTTTGAGA came in with a TetR repression strength of 0.145. Regarding TCCCCTGAAGTCGGGGAGA, the TetR repression strength was 0.253. TCCCAACAAGTACTGGAGA displayed a TetR repression strength of 0.206. Consider TCCCCTGCAGTACGGGAGA, for which the TetR repression strength worked out at 0.088.

The sequence TCCCTTGCAGTGGTTGAGA registered a TetR repression strength of 0.267.

Consider TCCCGGTTAGTCCAGGAGA, for which the TetR repression strength was 0.248. Consider TCCCCGCGAGTAGTTGAGA, for which the TetR repression strength turned out to be 0.311. Consider TCCCATATAGTTTGGGAGA, for which the TetR repression strength is 0.175. The sequence TCCCGGGGAGTAATCGAGA came in with a TetR repression strength of 0.057. For the sequence TCCCCTATAGTGATAGAGA, the TetR repression strength stood at 0.982. For the sequence TCCCGGTAAGTGATGGAGA, the TetR repression strength came out at 0.338. Regarding TCCCGGGGAGTGAGCGAGA, the TetR repression strength was determined as 0.15.

Turning to TCCCTGACAGTAGACGAGA, the TetR repression strength was found to be 0.207. TCCCATGCAGTGTTGGAGA yielded a TetR repression strength of 0.239. To TCCCGAAGAGTAAAGGAGA belongs 0.433.

TCCCCTTCAGTAGCAGAGA: the TetR repression strength stood at 0.258. Sequence TCCCTAAGAGTAAACGAGA had a TetR repression strength of 0.446. For TCCCGCCGAGTGTGGGAGA, the TetR repression strength came to 0.23. The sequence TCCCGGAGAGTGACCGAGA displayed a TetR repression strength of 0.198. The sequence TCCCCGGAAGTGATCGAGA displayed a TetR repression strength of 0.155. To TCCCCTCTAGTAACCGAGA belongs 0.289. Turning to TCCCATTAAGTCGGCGAGA, the TetR repression strength worked out at 0.376.

On to TCCCGGACAGTAACGGAGA, for which the TetR repression strength worked out at 0.312. For TCCCGCCGAGTCAAGGAGA, the TetR repression strength turned out to be 0.523.

Consider TCCCTGCTAGTGCAAGAGA, for which the TetR repression strength was found to be 0.372.

TCCCCGATAGTGGGAGAGA had a TetR repression strength of 0.0854.

Turning to TCCCTAAGAGTGGCGGAGA, the TetR repression strength is 0.211. Sequence TCCCTTCAAGTGGGTGAGA gave a TetR repression strength of 0.196.

For TCCCTTGTAGTAAGCGAGA, the TetR repression strength was 0.125. TCCCTGCTAGTGACAGAGA showed a TetR repression strength of 0.21. TCCCTGTCAGTGCCGGAGA showed a TetR repression strength of 1.03. Sequence TCCCACGCAGTGATAGAGA registered a TetR repression strength of 0.415. In turn, TCCCGGGAAGTCTGAGAGA returned a TetR repression strength of 0.31. TCCCTTCTAGTTAGGGAGA had a TetR repression strength of 0.519.

TCCCTTGTAGTAAAGGAGA showed a TetR repression strength of 0.228. TCCCATGCAGTGCCCGAGA yielded a TetR repression strength of 0.18. Regarding TCCCTTGGAGTTGAAGAGA, the TetR repression strength was determined as 0.158. In the case of TCCCACATAGTTTAGGAGA, the TetR repression strength stood at 0.26. In the case of TCCCGTGCAGTATTAGAGA, the TetR repression strength was 0.0608. The sequence TCCCCTTGAGTCCTAGAGA gave a TetR repression strength of 0.489. Turning to TCCCGCAGAGTGACGGAGA, the TetR repression strength is 0.129. Take TCCCGAGGAGTCCACGAGA: the TetR repression strength was determined as 0.394. Sequence TCCCGGTTAGTGGTTGAGA registered a TetR repression strength of 0.192.

Regarding TCCCCGGTAGTAGTAGAGA, the TetR repression strength is 0.198. TCCCCATAAGTTAGGGAGA came in with a TetR repression strength of 0.145. The same measure for TCCCGTAGAGTGTGGGAGA: 0.113; for TCCCCGATAGTCTGTGAGA: 0.301. TCCCGTATAGTATGGGAGA displayed a TetR repression strength of 0.0193. To TCCCATTCAGTATCGGAGA belongs 0.159. In the case of TCCCCGCGAGTCGATGAGA, the TetR repression strength came to 0.0756. To TCCCGCGTAGTTGAGGAGA belongs 0.161; to TCCCCGTGAGTGCGAGAGA, 0.177. Regarding TCCCGGATAGTTCTTGAGA, the TetR repression strength is 0.0968. As to TCCCTATCAGTAATAGAGA, the TetR repression strength is 0.878.

In turn, TCCCCTCAAGTTTACGAGA returned a TetR repression strength of 0.233.

In turn, TCCCCTGTAGTTTAGGAGA returned a TetR repression strength of 0.13. TCCCGCTCAGTGTACGAGA returned a TetR repression strength of 0.215. Take TCCCAGGTAGTTCCGGAGA: the TetR repression strength came out at 0.18. The same measure for TCCCTGCCAGTGATGGAGA: 0.257. To TCCCGGGAAGTGATAGAGA belongs 0.537. Sequence TCCCGTGTAGTCAGGGAGA gave a TetR repression strength of 0.0908.

TCCCGCTTAGTTAGTGAGA displayed a TetR repression strength of 0.383. TCCCCTCAAGTTGACGAGA returned a TetR repression strength of 0.261. Consider TCCCGTCTAGTGACAGAGA, for which the TetR repression strength was 0.369.

For the sequence TCCCAGACAGTGAGTGAGA, the TetR repression strength came out at 0.0202. For the sequence TCCCACATAGTACTTGAGA, the TetR repression strength is 0.257. TCCCGTTAAGTGCAAGAGA: the TetR repression strength came to 0.418. TCCCGAAAAGTCCGGGAGA registered a TetR repression strength of 0.185. TCCCCCAGAGTCGGCGAGA yielded a TetR repression strength of 0.274. TCCCTAACAGTTGCCGAGA returned a TetR repression strength of 0.353.

Sequence TCCCGCGCAGTGTTAGAGA returned a TetR repression strength of 0.197. Take TCCCTCATAGTGATTGAGA: the TetR repression strength was found to be 0.325. For the sequence TCCCACAAAGTTGGCGAGA, the TetR repression strength was determined as 0.312. For the sequence TCCCGTCAAGTTTGGGAGA, the TetR repression strength was determined as 0.223. Turning to TCCCAAGAAGTGAAGGAGA, the TetR repression strength was determined as 0.262.

Take TCCCTCTGAGTAAGAGAGA: the TetR repression strength was determined as 0.0346. For TCCCCGGGAGTGATGGAGA, the TetR repression strength was 0.184. The same measure for TCCCCTATAGTGTGTGAGA: 0.198; for TCCCAGGTAGTGGGTGAGA: 0.269. TCCCGAGTAGTTCACGAGA gave a TetR repression strength of 0.415. TCCCTACGAGTGGTTGAGA displayed a TetR repression strength of 0.304. TCCCGAAGAGTGTAGGAGA yielded a TetR repression strength of 0.154. With TCCCGAGAAGTCGCGGAGA, the TetR repression strength worked out at 0.0355.
